This passage reports self-cleavage results from the RNAGym collection of RNA variant scans (doi:10.1093/nar/gkz1192).

The labels stand for the following.
B1: CPEB3 Ribozyme (parent)
chain: UAACAGGGGGCCACAGCAGAAGCGUUCACGUCGCAGCCCCUGUCAGAUUCUGGUGAAUCUGCGAAUUCUGCUGUAUAUCUC

The source gives no read counts; variants with many changes may rest on few reads.

The variants in the series derive from B1. Nature of the series: self-cleavage, relative activity (ratio to wild type); higher = more cleavage; in vitro, sequencing. The essentials:
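After error-prone PCR and barcoding, CPEB3 ribozyme mutant libraries were transcribed with T7 RNA polymerase at 37°C for 5 hours, then given 15 min with DNase I before an EDTA stop, and they cleaved during both steps. Reverse transcription with template switching preceded Illumina sequencing. Relative activity divides a variant's cleaved/total read fraction by the unmutated ribozyme's. At least 5 reads were required per variant, and three batches were averaged.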
UAACAGGGGGCCGCAGCAAAAGCGUUCACGUCGAAGCCCCUGUCGGAUUCUGGUGAAUCUGCGAAUUCUGCAGUAUAUCUC: the self-cleavage was found to be 0.04.

In the case of UAACAGGGGGCCGCAGCAGAAGCGUUCACGUCGCAGCCCCUGUCAGAUUCUGGUGAAUCUGGGAAUUCUGCUGUAAAUCUC, the self-cleavage came to 0.4.

For UAACAGGGGGCCGCAGCAGAAGCGUCCACGUCGCAGCCCCUGUCAGAUUCUGGUGAGUCCGCGAGUUCUGCUGUAUAUCUC, the self-cleavage was found to be 0.08.

In the case of UAACAGGGGGCCGCAGCAGAAGCGUUCACGACGCAGCCCCUGUCGGAUACUGGUGAAUCUGCGAACUCUGCUGUAUAUCUC, the self-cleavage stood at 0.15.

On to UAACAGGGGGCCGCAGCAGAAACGUUCACGUCGCGGCCCCUGUCAGAUUCUGGUGAAUCUGCGAAUCCUGCUGUAUAUUUC, for which the self-cleavage amounted to 0.06.

For the variant UAACAGGGGGCCGCAGCAGAAGCGAUCACGUCGCAGCCCCUGUCAGAUUCUGGUGGAUCUGCGAAUUCUGCUGUAUAUCUC, the self-cleavage amounted to 0.31.

In the case of UAACAGGGGGCCGCAGCAGAAGCGCUCACGACGCAGCCCCUGUCAGAUGCUGGUGAAUCUGCGAUUUCUGCUGUGUAUCUC, the self-cleavage was 0.

With UAACAGGGGGCCGCAGCAGAAGCGUUCACGUCGCAGCCCCUGUCAGAUUCUGGUGAAUCUGCCGAUUCUGCUGUAUAUCUC, the self-cleavage was 0.73.

With UAACAGGGGGCCGCAGCAGAAGCGUACACUUCGCAGCCCCUGUCAGAUUCUGGUGAAUCUGCGAAUUCUGCUGUAUAUCUC, the self-cleavage amounted to 0.12.

For the variant UAACAGGGGGCCGCAGCAGAAGCGCUCACGUCGCAGCCCCUGUCAGAUUCAGGUGGAUCUGCGAAUCCUGCUGUAUAUCUC, the self-cleavage was found to be 0.04.

With UAACAGGGGGCCGCAGCAGAAGCGCUCACGUCGCAGCCCCUGUCAGAUUCUGGUGGAUCUGCGAAUUCCGCUGUAUAUCUC, the self-cleavage is 0.08.

On to UAACAGGGGGCCGCAGCAGAAGCGCUCACGUCGCAGCCCCUGUAUGAUUCUGGUGAAACUGCGAAUUCUGCUGUAUAUCUC, for which the self-cleavage worked out at 0.17.

UAACAGGGGGCCGCAGCAGAAGCGCUCACGUCGCAGUCCCAGUCAGAUUCUGGUGAAUCUGCGAAUUCUCCUGUAUGCCUC: the self-cleavage worked out at 0.03.

Regarding UAACAGGGGGCCGCAGCAGAAGCGCUCACGUCGCAGCCCCUGUCAGAUUCUGGCGAAUCUGAGAAUUCUGCUGUAUAUCUC, the self-cleavage came to 0.27.

Regarding UAACAGGGGGCCGCAGCAGAAGCGUCCACGUCGCAGCCCCUGGCAGAUUUUGGUGAAUCUGCGAAUUCUGCCGUAUAUCUC, the self-cleavage was found to be 0.08.

Take UAACAGGGGGCCGCAGCACAAGCGCUCACGUCGCAGCCCCUGUCAAAUUCUGGUGAAUCUGCGAAUUCUGCUGUAUAUCUC: the self-cleavage amounted to 0.14.

As for UAACAGGGGGCCGCAGCAGAAGCGCUCACGUCGCUGCCCCUGUCAGAUUCUGGUGGAUCUGCAAAUUCUGCUGUAUAUCUC, the self-cleavage was 0.1.

For the variant UAACAGGGGGCCGCAGCAGAAGCGUUCACGUCGCAGCCCCUGUCAGAUUCUGGUGAAUCUGCCAAUUAUGCUGUAUAUCUC, the self-cleavage came out at 0.21.

For the variant UAACAGGGGGCCGCAGCAGAAGCGUACACGUCGCAGCCCCUGUCAGAUUCUGGAGAAUCUGCGAGUUCUGAUGUAUAUCUC, the self-cleavage amounted to 0.22.

Turning to UAACAGGGGGCCGCAGCACGAGCGUUCACGUCGCAGCCCCUGUCAGAUUCUGGUGAAUCUGCGAAUUCUGCUGUAUAUCUC, the self-cleavage worked out at 0.11.

Consider UAACAGGGGGCCGCAGCAGAAGCGUUCACGUCGCAGCCCCUGUAAGAUUCUGGUGAGUCUGCGAGUUCUGCUGUAUAUCUC, for which the self-cleavage was 0.18.

Take UAACAGGGGGCCGCAGCAGAAGCGUUCACGUCGCAGCCCCUGUCAGAUUCUGUUGAAUCUGCGAAUUCAGCUGUAUAUCUC: the self-cleavage was found to be 0.39.

For UAACAGGGGGCCGCAGCAGAAGCGUACACGUCGCAGCCCCUGUCAGAUUCUGGUGUAUCUGCGAAUUCUGCUGUAUAUCUC, the self-cleavage was 0.46.

On to UAACAGGGGGCCGCAGCAGAAGCGUUCACGACGCAGCCCCCGUCAGAUUCUGGUGAAUCUGCGGAUUCUGCUGUAUAUCUC, for which the self-cleavage stood at 0.37.

Regarding UAACAGGGGGCCGCAGCAGAAGCGUUCACCUCGCAGCCCCAGACAGAAUCUGGUGAAUCUGCGAAUUCUGCUGAAUAUCUC, the self-cleavage worked out at 0.1.

Regarding UAACAGGGGGCCGCAGCAGAAGCGUGCACGUCGCAGCCCCUGUCGGAUUCUGGUGAAUCUGCGAAUUCUGCCGUAUAUCUC, the self-cleavage is 0.08.

In the case of UAACAGGGGGCCGCAGCAGAAGCGUUCACGUCGCAGCCCUUGUCAGGUUCUGGUGAAUCUGCGAAUUCUGCUGUAUAUCUC, the self-cleavage turned out to be 0.62.

UAACAGGGGGCCGCAGCACUAGCGUUCACGUCGCAGCCCCUGUCAGAUUCUGGUGAAUCGGCGAAAUCUGCUGUAUAUCUC: the self-cleavage worked out at 0.05.

On to UAACAGGGGGCCGCAGCAAAAGUGUUCACGUCGCAGCCCCUGUCAGAUUCUGGUGAAUCUGCGAUUUCUGCUGUAUAUCUC, for which the self-cleavage stood at 0.13.

As for UAACAGGGGGCCGCAGCAGAAGCGUUCACGUCGCAGCCCCUGUCAGAUUCUCGUGAAUCCGCGAAUUCUGCUGUAUAUCUC, the self-cleavage was found to be 0.29.

As to UAACAGGGGGCCGCAGCAGAACCGUUCGCGUCGCAGCCCCUGUCAGUUUCUGGUGAAUCUGCGGAUUCUGCUGUAUAUCUC, the self-cleavage was determined as 0.1.

Regarding UAACAGGGGGCCGCAGCAGAAGCGUCCACGUCGCAGCCCCUGUCAGAUUCUGGUGAAUCUGCCAAUUCUGCUGUAUAUCUC, the self-cleavage amounted to 0.41.

As to UAACAGGGGGCCGCAGCAGAAGCGCUCACGUCGCAGCCCCUGUCAGAUUCUGGUGAAUCUGCGAAUUCUGCUGAAUAUCUC, the self-cleavage amounted to 0.47.

Turning to UAACAGGGGGCCGCAGCAGAAGCGUUCACGUCGCAGCCCCUGUCAAAUUCUGGUGAAUCCGCGAAUUCUGCUGUAUAUCUC, the self-cleavage is 0.2.

As for UAACAGGGGGCCGCAGCAGAAGCGAUCACGUCGCAGCCCUUGUCAGAUUCUGGUGAGUCGGUGAAUUCUGCUGUAUUUCUC, the self-cleavage came out at 0.09.

Regarding UAACAGGGGGCCGCAUCAGAAGCGUUCUCGUCGCAGCCCGCGUCAGAUUAUGGUGAAUCUGCGAAUACUGCUGUAUAUCUC, the self-cleavage came to 0.04.

In the case of UAACAGGGGGCCGCAGCAGAAGCGUUCACGUCGCAACCCCCGUCAGAUCCUGGCGAAUCUGCGAAUUCUGCUGUAUAUCUC, the self-cleavage is 0.17.

As for UAACAGGGGGCCGCAGCAGAAGCGUUCACGUCGCAGCCCCUGUCAGAUUCUGUUGAAUCUGCGAAUCCUGCUGUAUAUAUC, the self-cleavage is 0.3.

With UAACAGGGGGCCGCAGCAUAAGCGUCCACGUCGCAGCCCCUGUCAGAUUCUGGUGAAUCUGCGAAUUCUGCUGUAUAUCUC, the self-cleavage was determined as 0.11.

For UAACAGGGGGCCGCAGCAGAAGCGUUCACGUCGCAGCCCCUGUCAGAUUCUGGUGAAUCUGCUAAUUCUGCUGUGUAUCUC, the self-cleavage is 1.07.

Turning to UAACAGGGGGCCGCAUCAGAAGCGUUCACGUCGCAGCCCCUGUCAGAUUCUGGUGAAUCUGCGAAUUCUGCUGUAUACCUC, the self-cleavage stood at 0.3.

For UAACAGGGGGCCGCAGCAGAAGCGCUCACGUCGCAGCCCCUGUCAGAUUCUGGUGAAUCUACGAAUUCUGCUGUAUACCUC, the self-cleavage is 0.08.

Regarding UAACAGGGGGCCGCAGCAGAAGCGUCCACGUCGCAGCCCCUGUCAGAUUCUGGUGAGUCUGCGAAUUCUGCUGUAUAUCUC, the self-cleavage was 0.45.

As for UAACAGGGGGCCGCAGCAGAAACGUUCACGUCGCAGCCCCCGUCAGAUUCUGGUGAAUCGGCGAGUUCUGCUGUAUAUCUC, the self-cleavage was 0.05.

For the variant UAACAGGGGGCCGCAGCAGAAGCGUCCACGUCGCAGCCCAUGUCAGAUUCGGGUGAAUCUGCGAAUUCUGCUGUAUAUCUC, the self-cleavage came to 0.23.

As for UAACAGGGGGCCGCAGCAGAAGCGAUCACGUCGCAGCCACGGUCAGAUUCUGGUGAAUCUGCGUAUUCUGCUGUAUAUCAC, the self-cleavage was 0.16.

In the case of UAACAGGGGGCCGCAGCACAAGCGUUCACGUCGCAGCCCCUGUCAGAUUCUGGUGAAUCUGCGAACUCUGCUGUAUAUCUC, the self-cleavage was 0.12.

Take UAACAGGGGGCCGCAGCACAAGCGCUCACGUCGCAGCCCCUGUCAGAUUCUGAUGAAUCUGCGAAUUCUGCUGUAUAUCUC: the self-cleavage worked out at 0.29.

For the variant UAACAGGGGGCCGCAGCAGAAGCGGUCACGUCGCAGCCCCUGUCAGAUUCUGGCGAAUCUGCGAAUCCUGUUGUAUAUCUC, the self-cleavage came to 0.05.

With UAACAGGGGGCCGCAGCAGAAGCGCUCACGACGUAGCCCCUGUCAGAUUCUGGUGAAUCUGCGGAUUCUGCUGUAUAUCUC, the self-cleavage worked out at 0.05.

On to UAACAGGGGGCCGCAGCAGAAGCGUCCACGUCGCAGCCCUUGUCAGAUUCUGGUGAAUCUGCGAAUUGUGCUGUAUAUCUC, for which the self-cleavage was 0.13.

As to UAACAGGGGGCCGCAGCAGAAGCGCUCACGCCGCAGCCCCUGUCAGAUUCUGGUGAAUCUGCGAAUUCUGCUGUAUAUCUC, the self-cleavage was found to be 0.26.

As for UAACAGGGGGCCGCAGCAGAAGCGUUCACGUCGCAGCCCCUGUCAGAUUCUGGUUAAUCUGCGAAUCCUGCUGUAUAUCUC, the self-cleavage worked out at 0.12.

With UAACAGGGGGCCGCAGCAGAAGCGAUCACGUCGCAGCCCCUGUCAGAUUCUGGUGAAUCUGCGAAUUCUGCCGUAUAUCUC, the self-cleavage is 0.06.

Turning to UAACAGGGGGCCGCAGCAGAAGCGCUCACGUCGCAGCCCCUGUCAGAUUCUGGUGAAUCCGCGAGUUCUGCUGUAUAUCUC, the self-cleavage was found to be 0.18.

For UAACAGGGGGCCGCAGCAGAAGCGCCCACGUCGCAGCCCCUGACAGAUUCUGGUGGAUCUGCGAAUUCUGCUGUAUAUUUC, the self-cleavage was found to be 0.32.

For the variant UAACAGGGGGCCGCAGCAGAAGCGCACACGUCGCAGCCCCUGCCGGAUUCUGGUGAAUCUGCGAACUCUGCUGUAUAUCUC, the self-cleavage is 0.37.

Regarding UAACAGGGGGCCGCAGCAGAAGCGUCCACGUCGCAGCCCCUGUCAGAUUCAGGUGAAUCUGCGAAUUCUGCUGUAUAUCUC, the self-cleavage stood at 0.26.

UAACAGGGGGCCGCAGCAGAAGCGUCCACGUCGCAGCCCCUGUCAGAUUCUGGUGAAUCAGCGAAUUCUGCUGUAUAUCUC: the self-cleavage is 0.37.

With UAACAGGGGGCCGCAGCAAUAGCGUUCACGUCGCCGCCCCUGUCAGAUUCUGGUGAAUCUGCGAAUUCUGCUGUAUAUCUC, the self-cleavage is 0.26.

For the variant UAACAGGGGGCCGCAGCAGAAGCGUUCACGACGCAGCCCCUGUCAGAUUCUGGUGAAACUGCGAAUUCUGCUGUAUAUCUC, the self-cleavage worked out at 0.22.

Turning to UAACAGGGGGCCGCAGCAGAAGCGUUCACGCCGCGGCCCCUGUCAGAUUCUGGUGUAUCUGCGAAUUCUGUUGUAUAUCUC, the self-cleavage came to 0.

Take UAACAGGGGGCCGCAGCAGAAGCGUUCACGUCGCAGCCCCUGUCAGAUUCUGGUGAAUUCGCGAAUUCUGCUGUAUAUCUC: the self-cleavage was 0.12.

With UAACAGGGGGCCGCAGCAGAAGCGCUCACGUCGCAGCCCCUGUCAGGUUCUGGUGAACCUGCGAAUUCUGCAGUAUAUCUC, the self-cleavage is 0.17.

Take UAACAGGGGGCCGCAGCAGAAGCGCUCAUGUAGCAGCCCCCGUCAGAUUCUGGUGAAUCUGCGAAUUCUGCUGUAUUUCUC: the self-cleavage is 0.24.

With UAACAGGGGGCCGCAGCAGAAGCGUUCACGUCGCAGCCCCUGUUAGAUUCUGGUGAAUCUGCAAAUUCUGCUGCGUAUCUC, the self-cleavage was 0.73.

As to UAACAGGGGGCCGCAGCAGAAGCGUCCACGUCGCAGCCCCUGUCAGAUUCUGGUGUAUCUGCGAAUUCAGCUGUAUAUCUC, the self-cleavage was found to be 0.06.

UAACAGGGGGCCGCAGCAGAAGCGUUCACGUCACAGCCCCCGUCUGAUUCUGGCGAAUCAGCGGAUUCUGCUGUAUAUCUC: the self-cleavage was 0.13.
